Out of some 220,000 compounds screened, about 2,300 (1%) were called active. The inconclusive results got no clear call from the source; some entries with a clear call stand among them for comparison. Calls come from the whole dose curve; as a rule, active = well fitted inhibition curve with a large enough effect; inconclusive = small, poorly fitted or top-dose-only effect, or effect the other way; inactive = no such curve, though single readings can be large or run the other way. Potencies of inconclusive entries are doubtful fits and often do not repeat.
What follows are compounds tested against Neuropeptide S receptor (Homo sapiens) (UniProt Q6W5P4) (assay: qHTS Assay for Antagonists of the Neuropeptide S Receptor: cAMP Signal Transduction). Conditions: CHO-NPSR cells, cAMP TR-FRET, antagonist mode; activity change, negative = inhibition: at 38.3 µM (top of the series) unless noted.
Chain of UniProt Q6W5P4 (Q6W5P4 whole entry, looked up): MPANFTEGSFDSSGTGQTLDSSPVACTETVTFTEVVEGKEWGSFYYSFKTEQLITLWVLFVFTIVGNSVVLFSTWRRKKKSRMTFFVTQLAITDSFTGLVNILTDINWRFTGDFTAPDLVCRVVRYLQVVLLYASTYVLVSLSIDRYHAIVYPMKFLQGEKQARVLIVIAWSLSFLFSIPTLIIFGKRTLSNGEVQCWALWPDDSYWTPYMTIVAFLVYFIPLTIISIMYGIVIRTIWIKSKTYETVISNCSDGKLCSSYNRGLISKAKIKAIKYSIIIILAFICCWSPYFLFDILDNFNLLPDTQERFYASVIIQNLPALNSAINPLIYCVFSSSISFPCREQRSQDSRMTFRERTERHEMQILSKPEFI
% is set by controls: 0 for no effect and ±100 for the full control effect; potency is the fitted concentration of half-maximal effect; tags give direction and shape of the fitted curve.
Note: nearly all actives have a fitted effect of over 50% in size.

Compound	Potency	activity change, negative = inhibition
CCCc1nc2ccccc2c2nc(N)nn12	inactive	–
O=C(c1csc2c1CCCC2)N1CCN(c2ccccc2)CC1	inconclusive: 25.1 µM [inhibitor, single point]	–
CCOc1ccc(CCNC(=O)C2CCCN(C(=O)N(C)C)C2)cc1OCC (configuration not stated)	inactive	–
COc1ccccc1N1CCN(C(=O)c2ccc3c(=O)n(Cc4ccco4)c(=S)[nH]c3c2)CC1	inconclusive: 7.94 µM [inhibitor, partial curve, poor fit]	–
CCC(c1nnnn1C1CCCC1)N(Cc1cccs1)Cc1cc2cc(C)ccc2[nH]c1=O (configuration not stated)	inconclusive: 12.6 µM [inhibitor, partial curve]	–
CCOc1ccc2nc(NC(=S)N(C)C)sc2c1	inconclusive: 2.51 µM [inhibitor, full curve, poor fit]	–
CCCSc1nc2sc3c(c2c(=O)n1CC)CC(C)(C)OC3	inconclusive: 12.6 µM [inhibitor, single point]	–
Cc1cccc(C(=O)NC(=O)Nc2c(C)cc(C)nc2C)c1	inactive	–
Cc1ccc2[nH]c(=O)c3cc(C(=O)N(CCCOC(C)C)Cc4ccco4)sc3c2c1	inconclusive: 15.8 µM [inhibitor, partial curve]	–
CCOc1ccccc1NC(=O)CN(Cc1ccccc1)S(C)(=O)=O	inactive	–
[O-]/[N+](=C\c1cccc(Br)c1)c1ccccc1	inactive	–
COc1ccc(/C=C2\CCC(C3CCCC3)C2=O)cc1Cn1cccn1 (configuration not stated)	inactive	–
COc1cc(OC)cc(C(=O)N(Cc2cc3cc(C)ccc3[nH]c2=O)C(C)C)c1	inconclusive: 5.01 µM [inhibitor, single point]	–
COc1ccc(/C=N/NC(=O)c2cc(O)c(O)c(O)c2)cc1Cn1cc([N+](=O)[O-])cn1	inactive	–
CS(=O)(=O)Oc1ccc2c(c1)O/C(=C\C=C\c1ccccc1)C2=O	inactive	–
COc1ccc(CCC(C)NCC2CCCCC2)cc1 (configuration not stated)	inactive	–
Cc1ccc(/C=C/C(=O)NC2=NCCS2)cc1	inactive	–
Cc1cc(C)nc(N(C#N)CN2C(=O)c3ccccc3S2(=O)=O)n1	inconclusive: 15.8 µM [inhibitor, single point]	–
N#Cc1c(-c2cccs2)nc(SCc2ccc(Cl)cc2)[nH]c1=O	inconclusive: 6.31 µM [activator, partial curve]	–
Cc1c(-c2ccccc2)oc2nc3c(c(=O)n(C)c(=O)n3C)n12	–	inconclusive: -31.9% [inhibitor] [at 46.1 µM]
Cc1nn(-c2ccccc2)c(C)c1NC(=O)COc1ccc2ccccc2c1	inconclusive: 7.94 µM [inhibitor, partial curve]	–
COC(=O)c1sccc1NC(=O)c1cccs1	inconclusive: 25.1 µM [activator, single point]	–
Cc1cccc(C(=O)c2ccccc2C(=O)O)c1	inactive	–
C=CCOc1ccc(C2C(C(=O)c3ccco3)=C(O)C(=O)N2CCCN(CC)CC)cc1 (configuration not stated)	inactive	–

Compound	Potency	activity change, negative = inhibition
Cc1c2cccn2cc[n+]1C	inactive	–
CCc1ccc(S(=O)(=O)c2n[nH]n3c2nc(=O)c2ccccc23)cc1	inactive	–
Cc1cc(C)nc(NS(=O)(=O)c2ccc(NC(=O)c3ccc4c(c3)OCCO4)cc2)n1	inactive	–
Cc1ccc(NC(=O)/C=C\C(=O)O)c([N+](=O)[O-])c1	inactive	–
CCc1ccc2c(c1)C1(C(=O)N2)N2CCCC2C(C(=O)c2ccc3ccccc3c2)C12C(=O)Nc1ccccc12 (configuration not stated)	inconclusive: 5.01 µM [inhibitor, single point]	–
COc1ccc(OCC(=O)N2CCN(c3nnc(-c4ccc(C)cc4)c4ccccc34)CC2)cc1	inconclusive: 10 µM [inhibitor, single point]	–
CC(C)(C)c1nn(-c2ccccc2)c2[nH]c(=O)c(CNc3ccc4c(c3)OCCO4)cc12	inconclusive: 20 µM [inhibitor, single point]	–
Cc1cc(/C=C2\SC(=S)NC2=O)c(C)n1-c1cccc(O)c1	inconclusive: 10 µM [activator, partial curve]	–
O=S(=O)(c1ccc(NC(=S)NN=C2CCCCC2)cc1)N1CCOCC1	inactive	–
CCOC(=O)c1cnc(-n2nc(C)cc2C)nc1N(C)C	inconclusive: 25.1 µM [inhibitor, single point]	–
C=CCn1c(-c2ccc(OC)c(OC)c2)n[nH]c1=S	inactive	–
Clc1cc(Sc2ccc(Br)cc2)nnc1-c1ccccc1	inconclusive: 10 µM [inhibitor, single point]	–
Cc1nn(-c2ccccc2)c(C)c1/C=N/NC(=O)c1cc(-c2ccc(Br)s2)[nH]n1	inactive	–
Cc1ccccc1CN(c1ccc(C(=O)N2CCc3ccccc3C2)cc1)S(C)(=O)=O	inconclusive: 12.6 µM [inhibitor, partial curve]	–
COc1ccc(S(=O)(=O)NCCCCNS(=O)(=O)c2ccc(OC)cc2)cc1	inactive	–
COc1ccc(-c2[nH]ncc2/C=C(/C#N)C(=O)NC2CCCCCC2)cc1	inconclusive: 10 µM [inhibitor, partial curve]	–
Cc1ccc(S(=O)(=O)N2CCC(C(=O)NCCCN3CCCCCC3)CC2)cc1	inconclusive: 31.6 µM [inhibitor, single point]	–
O=c1cc(-c2ccccc2)[nH]c2ccccc12	inconclusive: 25.1 µM [activator, single point]	–
Cc1ccc(-n2c(C)cc(C3N=C(N)Nc4nc5ccccc5n43)c2C)c(C)c1 (configuration not stated)	active: 10 µM	–
Cc1cc(-c2nc(C)c(-c3nnc(SCC(=O)Nc4cc(Cl)cc(Cl)c4)n3C)s2)no1	inconclusive: 2.51 µM [activator, full curve]	–
COc1cc2oc3ccccc3c2cc1N(CC(=O)N(C)C)S(=O)(=O)c1ccc(C)cc1	inconclusive: 12.6 µM [inhibitor, single point]	–
CC(C)C[C@H](NC(=O)c1nc[nH]c1C(=O)N[C@@H](CC(C)C)C(=O)OC(C)(C)C)C(=O)OC(C)(C)C	inconclusive: 15.8 µM [inhibitor, single point]	–
Cc1nn(-c2ccccc2)c2sc(C(=O)N3CCCCC3)cc12	inconclusive: 25.1 µM [inhibitor, single point]	–

From PubChem BioAssay AID1461 (National Center for Advancing Translational Sciences (NCATS), 2008)
